# Data reported in the supplement of paper PMC11417369.
# The list shows a part of the results.
# System: PfSIP2 AP2 domain 1 (GST-tagged)
# Test: gcPBM binding intensity (ln(normalized median fluorescence intensity)); higher = stronger DNA binding
# Summary of the method: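 The highest Masliner-normalised natural-log median intensity across replicate spots of either probe orientation is reported as binding intensity. GST-tagged P. falciparum DNA-binding domains expressed in E. coli were applied for 1 h to an Agilent 4 × 180k array of primer-extended double-stranded 36-bp intergenic genomic probes plus negative controls, and bound protein was detected with Alexa488 anti-GST antibody and scanned at 488 nm.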
row,Sequence,gcPBM binding intensity (ln)
1,CACATACAGACATACACACACATATATATTAATATA [CACACA_site546],7.37
2,CATACATACAAACACACACACACACCGATATATATA [CACACA_site8952],7.3
3,TATATAATAAAAAAAAGTACTTGGACAATATTATTT [XGTACX_site2802],6.95
4,TTAATTTACATGAACTGTACATAACATTTTTTTAAA [XGTACX_site4672],6.82
5,ATCAAAATATTTATATGTACATATTAAAAATATAGA [XGTACX_site725],7.1
6,TTGTGTTTTATTATTTTATTATTACTATTATAATGT [GTGCAC_negctrl_site484],7.19
7,ATAAAACATAAATACATACACACATAATATATATTA [CACACA_site110],7.07
8,TAAAAATGGGTATGTACACACTTTATTTTTAATACA [CACACA_site5404],7.05
9,TGTAATGTTTACAACACACAAATTAGAAATACAAAA [CACACA_site6924],6.92
10,ACATATTTAAAAACATGTACAAATATATTTATAATT [XGTACX_site661],7.17
11,AAGGAAGATATATACACACATACAAATATATATATA [CACACA_site2181],8.66
12,TTATTTATAATGTTGTGTACATATATGAATATACCA [XGTACX_site3111],6.93
13,AAGAAAAAATAAAGCACACAAATATTTTAAAAACAC [CACACA_site3325],7.63
14,TTTTTTCAATTGGAAATTATTTTACAATGAAGGGTA [XGTACX_negctrl_site469],7.09
15,TATTTTACGTATTGTTGTACTTGAAACAAATATACA [XGTACX_site8778],7.15
16,TATAAACATAAATATACACACAAACATATATGTATT [CACACA_site8324],6.93
17,CGTTTCCCCAATGGTTGTACAATATATATATATATA [XGTACX_site8641],9.58
18,AGACATATAATATATACACACATATATATATATATA [CACACA_site1066],9.06
19,TTATTCTAGTAGTGTGTGCGCATGGACAATGCAATA,8.32

row,Sequence,gcPBM binding intensity (ln)
1,ATACATATAATATATGCATGTACCAATCAAATATAT [TGCATGCA_site192],7
2,TATATATCGTTATATACACACATGTATATAAAAAAT [CACACA_site7501],6.98
3,ATATTTTATTTATATACACACACATATATATATTAT [CACACA_site8177],7.3
4,CTTTATATAAAATAAAGTACATAAATTATGATATAT [XGTACX_site3699],7.11
5,TTCTTTATATACAAACCAAAATATTATGTATAATAA [CACACA_negctrl_site15],7.04
6,TTATTATATATTTTATTTATTAATAGTATATATTAT [TGCATGCA_negctrl_site155],6.67
7,TAATTTTTTTTTATGATACACACTTGGATAATTAAA [CACACA_site562],6.88
8,TTAACCTTTATATAATACGTATCATCCTCATATATA [CACACA_negctrl_site86],7.1
9,ATATAAAATCAACAAAAAAAAAAAATATATATATAT [XGTACX_negctrl_site251],9.03
10,TGTATATATTTGTGCACACCAAAGTTTGATTTTATT [CACACA_site1860],10
11,TATTATAACTAAAAAAATCACATAAAATACTTTATT [CACACA_negctrl_site2],6.61
12,TTATATTTTTTAATTACACACAATTCTTATAAATAT [CACACA_site7870],6.94
13,TATATACACATGCGCACACACAAGTGGGAAATTTGG [CACACA_site6930],7.33
14,AATATTTGCCTATGTTGTACTGACATTTTTTTAAGT [XGTACX_site6836],7.06
15,ATATATAATATATGATGTACTTAATAATTTTTTTTT [XGTACX_site5715],7.07
16,TAATAATCCACAAGCACACACACACCCATATATATA [CACACA_site1267],7.41
17,TTAAGGATCCACGATACACACATATCATTCAACAAA [CACACA_site1924],6.81
18,TTTTGACATTAATTACTATAGTGTTCTTATAAAATT [TGCATGCA_negctrl_site589],6.97
19,CATTTTATTTTAATATGTACTTAAAGAAAAAAAATT [XGTACX_site7670],7.1

row,Sequence,gcPBM binding intensity (ln)
1,AATACATAAAAATAAAAATAAAATATAACTAATATG [CACACA_negctrl_site186],6.87
2,TTATACATATATTTAACACACATTTTATAAAGTGCC [CACACA_site1314],7.02
3,AAAACTATAATGAATAGTACATAAAAATGGATATAT [XGTACX_site6056],7.38
4,AATCGATAAAATGTTGTGCACATATTTTTATATTTA [GTGCAC_site9651],9.71
5,TTAAATTACTAATGTGCACACATACTAACGTTTAAA [CACACA_site3573],9.21
6,TATCTTATTTTATCTCGTACATAAAATTAAAAAATT [XGTACX_site3636],7.15
7,AATATGTATCCATACACACATACATTTTATTTGCAA [CACACA_site874],6.98
8,TTTTATTTATTATTTACACACACGTAGGTGTCCATA [CACACA_site430],7.05
9,TTCATTCTATAAAACACACAAATATTTTTGTATCCC [CACACA_site6458],6.8
10,TTTTGTGATCTTACCACCTTTCATAATATTAATAAA [GTGCAC_negctrl_site360],7.12
11,ATATATTTTAATGATACACACAAGAAATAAAATTAC [CACACA_site5671],7.18
12,ATAGAACAATTCAGAAGTACATAAAAAGAAAAATTT [XGTACX_site3015],6.9
13,TTGGATGATTAAGGGGGACACACGTTTATATATTTA [CACACA_site338],7.61
14,ACTTTTTTAATGTTACGTACACATAAATAATAATTA [XGTACX_site8092],7.64
15,TTTCACAAATGATATAGTACTTTTTATTATTAACAT [XGTACX_site7976],6.95
16,TAAAAAAAAAAAAAAGTACACACTTATAAAATATTA [CACACA_site872],7.17
17,ATATATTTTTTGAATACACACATATTATATGTAATA [CACACA_site1256],6.87
18,GTTACACCAACAAACACACACACACCGACACCCAAA [CACACA_site5361],7.24
